From the supplement of paper PMC10369915
The other results are listed elsewhere or left out. Cut-off read from the data, not from the text of the source: active = 3.2 or more and inactive = the rest. The signal is at background level for most entries.

These binders were tested against SHP2 C-SH2 domain E139D (assay: enrichment score (SH2-bound / input frequency) (ratio); bacterial display of known human phosphotyrosine sites (pTyr-Var adds point mutants) read by sequencing; higher = stronger binding; tyrosines were phosphorylated by kinases first). Details: peptide library: pTyr-Var.
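Note: displayed peptides selected on beads carrying the immobilized SH2 domain, with library peptides lacking any tyrosine serving as negative controls.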

Binder	enrichment score
DPASAYADEVK [ETNPPL_Y189_S185P]	inactive: 0.552
DTSKMYIPHTD [EXPH5_Y782]	inactive: 0.815
MLEVSYVDRNS [F10_Y384_P383S]	inactive: 0.875
GKFHMYVAVWT [F13A1_Y161_R159H]	inactive: 0.402
RALRHYFKLNI [ETV6_Y401_YF]	active: 3.32
GKFRMYVAVWT [F13A1_Y161]	inactive: 0.564
VTGWGYRKLRE [F11_Y521_D526E]	inactive: 0.323
SCTFTCLLGDR [ETHE1_Y38_Y38C]	inactive: 2.81
CHRQLYHKCTH [F12_Y58_Y53C]	active: 3.87
RKKEEYKMALY [F8_Y1990]	inactive: 1.14
RALCHYYKLNI [ETV6_Y401_R399C]	active: 3.25
ERLWDYGMSSS [F8_Y1728]	inactive: 0.937
RALRHYYKLNI [ETV6_Y401]	active: 4.12
ALRASYTPSPV [ESS2_Y418_A423V]	inactive: 0.864
QKKEEYKMALF [F8_Y1990_R1985Q_YF]	inactive: 0.799
ERLWDCGMSSS [F8_Y1728_Y1728C]	inactive: 0.92
KRLWDYGMSSS [F8_Y1728_E1723K]	inactive: 1.14
MFCAGYDTKQE [F10_Y407]	inactive: 1.19
EFISENCGEII [EZH2_Y641_Y641N]	inactive: 0.724

Each binder was assayed against SHP2 C-SH2 domain wild-type in the same assay as above. Details: peptide library: pTyr-Var.

Binder	enrichment score
DPASAYADEVK [ETNPPL_Y189_S185P]	inactive: 0.638
DTSKMYIPHTD [EXPH5_Y782]	inactive: 0.682
MLEVSYVDRNS [F10_Y384_P383S]	inactive: 0.752
GKFHMYVAVWT [F13A1_Y161_R159H]	inactive: 0.746
RALRHYFKLNI [ETV6_Y401_YF]	inactive: 2.9
GKFRMYVAVWT [F13A1_Y161]	inactive: 0.817
VTGWGYRKLRE [F11_Y521_D526E]	inactive: 0.327
SCTFTCLLGDR [ETHE1_Y38_Y38C]	inactive: 2.82
CHRQLYHKCTH [F12_Y58_Y53C]	active: 3.36
RKKEEYKMALY [F8_Y1990]	inactive: 0.779
RALCHYYKLNI [ETV6_Y401_R399C]	inactive: 2.95
ERLWDYGMSSS [F8_Y1728]	inactive: 0.881
RALRHYYKLNI [ETV6_Y401]	active: 3.43
ALRASYTPSPV [ESS2_Y418_A423V]	inactive: 0.896
QKKEEYKMALF [F8_Y1990_R1985Q_YF]	inactive: 0.6
ERLWDCGMSSS [F8_Y1728_Y1728C]	inactive: 0.678
KRLWDYGMSSS [F8_Y1728_E1723K]	inactive: 0.974
MFCAGYDTKQE [F10_Y407]	inactive: 1.35
EFISENCGEII [EZH2_Y641_Y641N]	inactive: 0.631

These binders were tested against SHP2 N-SH2 domain L43F in the same assay as above. Details: peptide library: pTyr-Var.

Binder	enrichment score
DPASAYADEVK [ETNPPL_Y189_S185P]	inactive: 0.566
DTSKMYIPHTD [EXPH5_Y782]	inactive: 0.622
MLEVSYVDRNS [F10_Y384_P383S]	inactive: 0.91
GKFHMYVAVWT [F13A1_Y161_R159H]	inactive: 0.565
RALRHYFKLNI [ETV6_Y401_YF]	inactive: 2.78
GKFRMYVAVWT [F13A1_Y161]	inactive: 0.507
VTGWGYRKLRE [F11_Y521_D526E]	inactive: 0.263
SCTFTCLLGDR [ETHE1_Y38_Y38C]	inactive: 2.84
CHRQLYHKCTH [F12_Y58_Y53C]	active: 3.59
RKKEEYKMALY [F8_Y1990]	inactive: 0.823
RALCHYYKLNI [ETV6_Y401_R399C]	active: 3.31
ERLWDYGMSSS [F8_Y1728]	inactive: 0.938
RALRHYYKLNI [ETV6_Y401]	active: 3.64
ALRASYTPSPV [ESS2_Y418_A423V]	inactive: 0.776
QKKEEYKMALF [F8_Y1990_R1985Q_YF]	inactive: 0.686
ERLWDCGMSSS [F8_Y1728_Y1728C]	inactive: 0.739
KRLWDYGMSSS [F8_Y1728_E1723K]	inactive: 0.911
MFCAGYDTKQE [F10_Y407]	inactive: 1.14
EFISENCGEII [EZH2_Y641_Y641N]	inactive: 0.588

These binders were tested against SHP2 N-SH2 domain T42A in the same assay as above. Details: peptide library: pTyr-Var.

Binder	enrichment score
DPASAYADEVK [ETNPPL_Y189_S185P]	inactive: 0.554
DTSKMYIPHTD [EXPH5_Y782]	inactive: 0.69
MLEVSYVDRNS [F10_Y384_P383S]	inactive: 0.723
GKFHMYVAVWT [F13A1_Y161_R159H]	inactive: 0.456
RALRHYFKLNI [ETV6_Y401_YF]	active: 3.22
GKFRMYVAVWT [F13A1_Y161]	inactive: 0.589
VTGWGYRKLRE [F11_Y521_D526E]	inactive: 0.224
SCTFTCLLGDR [ETHE1_Y38_Y38C]	inactive: 2.29
CHRQLYHKCTH [F12_Y58_Y53C]	active: 3.39
RKKEEYKMALY [F8_Y1990]	inactive: 0.951
RALCHYYKLNI [ETV6_Y401_R399C]	inactive: 2.48
ERLWDYGMSSS [F8_Y1728]	inactive: 0.82
RALRHYYKLNI [ETV6_Y401]	inactive: 2.73
ALRASYTPSPV [ESS2_Y418_A423V]	inactive: 0.767
QKKEEYKMALF [F8_Y1990_R1985Q_YF]	inactive: 0.659
ERLWDCGMSSS [F8_Y1728_Y1728C]	inactive: 0.659
KRLWDYGMSSS [F8_Y1728_E1723K]	inactive: 0.986
MFCAGYDTKQE [F10_Y407]	inactive: 0.974
EFISENCGEII [EZH2_Y641_Y641N]	inactive: 0.583

Each binder was assayed against SHP2 N-SH2 domain T52S in the same assay as above. Details: peptide library: pTyr-Var.

Binder	enrichment score
DPASAYADEVK [ETNPPL_Y189_S185P]	inactive: 0.604
DTSKMYIPHTD [EXPH5_Y782]	inactive: 0.586
MLEVSYVDRNS [F10_Y384_P383S]	inactive: 0.667
GKFHMYVAVWT [F13A1_Y161_R159H]	inactive: 0.552
RALRHYFKLNI [ETV6_Y401_YF]	inactive: 2.54
GKFRMYVAVWT [F13A1_Y161]	inactive: 0.573
VTGWGYRKLRE [F11_Y521_D526E]	inactive: 0.258
SCTFTCLLGDR [ETHE1_Y38_Y38C]	inactive: 2.7
CHRQLYHKCTH [F12_Y58_Y53C]	active: 3.75
RKKEEYKMALY [F8_Y1990]	inactive: 1.27
RALCHYYKLNI [ETV6_Y401_R399C]	inactive: 2.81
ERLWDYGMSSS [F8_Y1728]	inactive: 0.834
RALRHYYKLNI [ETV6_Y401]	active: 3.93
ALRASYTPSPV [ESS2_Y418_A423V]	inactive: 0.838
QKKEEYKMALF [F8_Y1990_R1985Q_YF]	inactive: 0.796
ERLWDCGMSSS [F8_Y1728_Y1728C]	inactive: 0.686
KRLWDYGMSSS [F8_Y1728_E1723K]	inactive: 0.973
MFCAGYDTKQE [F10_Y407]	inactive: 1.04
EFISENCGEII [EZH2_Y641_Y641N]	inactive: 0.686

What follows are binders tested against SHP2 N-SH2 domain wild-type in the same assay as above. Details: peptide library: pTyr-Var.

Binder	enrichment score
DPASAYADEVK [ETNPPL_Y189_S185P]	inactive: 0.63
DTSKMYIPHTD [EXPH5_Y782]	inactive: 0.723
MLEVSYVDRNS [F10_Y384_P383S]	inactive: 1.2
GKFHMYVAVWT [F13A1_Y161_R159H]	inactive: 0.892
RALRHYFKLNI [ETV6_Y401_YF]	inactive: 3.07
GKFRMYVAVWT [F13A1_Y161]	inactive: 0.921
VTGWGYRKLRE [F11_Y521_D526E]	inactive: 0.301
SCTFTCLLGDR [ETHE1_Y38_Y38C]	inactive: 2.69
CHRQLYHKCTH [F12_Y58_Y53C]	active: 3.46
RKKEEYKMALY [F8_Y1990]	inactive: 0.951
RALCHYYKLNI [ETV6_Y401_R399C]	inactive: 2.85
ERLWDYGMSSS [F8_Y1728]	inactive: 0.991
RALRHYYKLNI [ETV6_Y401]	active: 3.66
ALRASYTPSPV [ESS2_Y418_A423V]	inactive: 0.913
QKKEEYKMALF [F8_Y1990_R1985Q_YF]	inactive: 0.623
ERLWDCGMSSS [F8_Y1728_Y1728C]	inactive: 0.728
KRLWDYGMSSS [F8_Y1728_E1723K]	inactive: 1.03
MFCAGYDTKQE [F10_Y407]	inactive: 1.52
EFISENCGEII [EZH2_Y641_Y641N]	inactive: 0.88
